Here are results for three substances from publication PMC12796746.

Protein sequences, listed by entry. Tags and fused reporters are not part of them.
UniProt Q9Y243: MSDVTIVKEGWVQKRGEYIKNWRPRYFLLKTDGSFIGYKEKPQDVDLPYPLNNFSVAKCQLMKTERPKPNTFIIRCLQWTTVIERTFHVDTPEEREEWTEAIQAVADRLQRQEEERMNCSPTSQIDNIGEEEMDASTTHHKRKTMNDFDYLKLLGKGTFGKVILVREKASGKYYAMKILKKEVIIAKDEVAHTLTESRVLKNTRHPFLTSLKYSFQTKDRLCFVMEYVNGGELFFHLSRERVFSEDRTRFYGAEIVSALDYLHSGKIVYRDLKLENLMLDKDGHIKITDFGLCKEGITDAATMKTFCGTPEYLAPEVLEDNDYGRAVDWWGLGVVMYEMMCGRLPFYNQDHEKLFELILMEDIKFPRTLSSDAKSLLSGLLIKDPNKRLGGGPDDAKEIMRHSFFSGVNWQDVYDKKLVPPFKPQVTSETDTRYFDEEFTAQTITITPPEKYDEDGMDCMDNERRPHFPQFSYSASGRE
UniProt Q9UNF0: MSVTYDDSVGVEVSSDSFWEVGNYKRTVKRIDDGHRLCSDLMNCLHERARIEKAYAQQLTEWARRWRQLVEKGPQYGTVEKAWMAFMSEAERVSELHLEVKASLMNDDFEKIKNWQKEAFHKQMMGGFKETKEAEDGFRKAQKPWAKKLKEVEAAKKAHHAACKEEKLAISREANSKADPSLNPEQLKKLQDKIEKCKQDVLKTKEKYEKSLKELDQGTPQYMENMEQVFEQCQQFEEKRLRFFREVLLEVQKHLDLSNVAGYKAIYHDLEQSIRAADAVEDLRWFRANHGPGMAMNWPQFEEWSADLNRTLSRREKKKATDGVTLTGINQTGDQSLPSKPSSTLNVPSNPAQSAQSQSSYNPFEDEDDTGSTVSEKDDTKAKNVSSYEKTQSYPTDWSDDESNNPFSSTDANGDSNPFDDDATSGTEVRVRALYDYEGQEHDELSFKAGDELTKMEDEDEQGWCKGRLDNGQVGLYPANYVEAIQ
UniProt Q3SYC2: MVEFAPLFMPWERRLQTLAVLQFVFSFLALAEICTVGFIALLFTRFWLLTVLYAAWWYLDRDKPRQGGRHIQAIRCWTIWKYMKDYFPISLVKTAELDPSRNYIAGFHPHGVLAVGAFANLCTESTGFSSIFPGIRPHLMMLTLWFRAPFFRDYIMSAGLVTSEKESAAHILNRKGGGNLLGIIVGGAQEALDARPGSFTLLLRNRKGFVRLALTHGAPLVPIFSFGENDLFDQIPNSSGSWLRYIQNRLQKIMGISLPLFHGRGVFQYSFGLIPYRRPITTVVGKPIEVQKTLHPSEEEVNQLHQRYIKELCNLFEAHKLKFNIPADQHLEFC
UniProt P61586: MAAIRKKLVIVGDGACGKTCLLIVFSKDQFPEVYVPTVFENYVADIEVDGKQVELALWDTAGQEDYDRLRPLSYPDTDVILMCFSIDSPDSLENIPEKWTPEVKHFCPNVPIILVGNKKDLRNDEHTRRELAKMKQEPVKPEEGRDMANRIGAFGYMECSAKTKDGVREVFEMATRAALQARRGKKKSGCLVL

Among the targets are AKT3 (human) (UniProt Q9Y243); PACSIN2 (human) (UniProt Q9UNF0); AGO3 (human) (UniProt Q9H9G7).
Common to all, as to experiment: peptide or protein array; HuProt Human Proteome Microarray v2.0, full-length human proteins spotted in duplicate; V5-tagged TRPV4 protein in solution at 1 μM, 1 h at 4 °C, 150 mM NaCl, 2.7 mM KCl, 25 mM Trizma base, 0.05% Tween-20, pH 7.4; detected with Alexa Fluor 647 anti-V5; hit: z-score >= 2 (N terminus: both of 2 slides; ARD constructs: at least 2 of 3 slides); both purified

Assay [1] concerns the target Short coiled-coil protein (human) (UniProt Q9UIL1).
In assay [2] the target is 2-acylglycerol O-acyltransferase 2 (human) (UniProt Q3SYC2).
Assay [3] addresses T1, Synaptotagmin-like protein 2 (human) (UniProt Q9HCH5).
T1 sequence: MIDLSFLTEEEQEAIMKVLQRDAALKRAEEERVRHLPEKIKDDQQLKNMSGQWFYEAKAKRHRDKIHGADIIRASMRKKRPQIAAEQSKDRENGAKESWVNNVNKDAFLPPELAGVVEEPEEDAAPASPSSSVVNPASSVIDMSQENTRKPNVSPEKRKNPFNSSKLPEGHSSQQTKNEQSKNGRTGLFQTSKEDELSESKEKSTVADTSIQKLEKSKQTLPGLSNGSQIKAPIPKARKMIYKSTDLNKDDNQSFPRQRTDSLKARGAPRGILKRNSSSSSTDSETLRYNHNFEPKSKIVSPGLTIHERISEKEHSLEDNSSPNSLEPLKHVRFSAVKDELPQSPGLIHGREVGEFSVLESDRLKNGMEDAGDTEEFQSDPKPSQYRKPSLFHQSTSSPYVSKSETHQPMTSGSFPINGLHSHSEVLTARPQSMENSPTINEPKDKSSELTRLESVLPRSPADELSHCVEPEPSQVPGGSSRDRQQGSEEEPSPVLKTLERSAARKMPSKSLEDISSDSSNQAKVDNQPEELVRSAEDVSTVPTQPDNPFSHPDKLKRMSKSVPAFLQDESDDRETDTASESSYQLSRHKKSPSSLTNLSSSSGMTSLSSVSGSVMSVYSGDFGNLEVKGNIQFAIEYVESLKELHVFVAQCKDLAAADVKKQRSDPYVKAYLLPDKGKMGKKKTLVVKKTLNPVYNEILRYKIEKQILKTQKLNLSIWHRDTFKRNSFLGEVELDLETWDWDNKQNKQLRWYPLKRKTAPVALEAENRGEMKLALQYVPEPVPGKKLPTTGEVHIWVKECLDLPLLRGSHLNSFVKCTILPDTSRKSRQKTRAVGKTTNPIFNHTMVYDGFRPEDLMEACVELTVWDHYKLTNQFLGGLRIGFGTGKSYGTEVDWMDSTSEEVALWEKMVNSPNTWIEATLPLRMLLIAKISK

For assay [4], the target named is T2, LOC554174 protein (human) (UniProt Q96GL5).
T2 sequence: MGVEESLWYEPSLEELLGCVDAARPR

The target in assay [5] is RhoA (on the HuProt array) (human) (UniProt P61586).

Results are given in words; binding and its absence hold for the method and conditions named. Some results given as binding are weak or reduced against the parent protein; the word gives no strength. For some of these results: Tags and fused reporters may be left off the sequences shown.

On to “TRPV4^R315W-ARD (from UniProt Q9HBA0 149-397) (domain or fragment)”, for which the binding entry in assay [1] and in assay [2] was “no binding (tested: 1 μM)” each time.

Consider “TRPV4^R269C-ARD (from UniProt Q9HBA0 149-397) (domain or fragment)”, for which the binding result in assay [1] and in assay [2] was “no binding (tested: 1 μM)” throughout.

As to “TRPV4^WT-ARD (amino acids 149-397) (from UniProt Q9HBA0 149-397) (domain or fragment)”, the binding entry with AKT3 (human) was “no binding (tested: 1 μM)”; in the assay with PACSIN2 (human), “no binding (tested: 1 μM)”; in assay [3], “binds”; in assay [4] it was “binds”; in assay [5], “no binding (tested: 1 μM)”; with AGO3 (human) it was “no binding (tested: 1 μM)”.
